Reference: patent publication US5580852A, “Derivatives of tachyplesin having inhibitory activity towards plant pathogenic fungi” (Pioneer Hi-Bred International, Inc., priority 1993, dated 1996)

How the values were obtained:
Aspergillus flavus = assay: Antifungal testing, MIC and MCIC; conditions: NA = not active
Description: (§1) Minimum Inhibitory Concentrations (MIC) and Minimum Complete Inhibitory Concentrations (MCIC) in μg/mL were determined for each of the compounds of this invention using the published methods of Duvick, J. P. et al, J. Biol. Chem., 267, 18814-18820 (1992).

Fusarium moniliforme = assay: Antifungal testing, MIC and MCIC; conditions: NA = not active
Description: as §1

E. coli = format: cell-based
B. pumillus = tested on: B. pumillus
Description: (§2) Minimum Inhibitory Concentrations (MIC) and Minimum Complete Inhibitory Concentrations (MCIC) in μg/mL against selected species of bacteria were determined for each of the compounds of this invention.

E. stewartii = tested on: E. stewartii
Description: as §2

LBA 4404 = tested on: LBA 4404
Description: as §2

C. nebraskense = tested on: C. nebraskense
Description: as §2

| Sequence | MCIC (Minimum Complete Inhibitory Concentration) (Aspergillus flavus) [µg/mL] | MIC (Minimum Inhibitory Concentration) (Aspergillus flavus) [µg/mL] | MCIC (Minimum Complete Inhibitory Concentration) (Fusarium moniliforme) [µg/mL] | MIC (Minimum Inhibitory Concentration) (Fusarium moniliforme) [µg/mL] | MCIC (Minimum Complete Inhibitory Concentration) (Fusarium graminearum) | MIC (Minimum Inhibitory Concentration) (Fusarium graminearum) | MCIC (Minimum Complete Inhibitory Concentration) (E. coli) [µg/mL] | MIC (Minimum Inhibitory Concentration) (E. coli) [µg/mL] | MCIC (Minimum Complete Inhibitory Concentration) (B. pumillus) [µg/mL] | MIC (Minimum Inhibitory Concentration) (B. pumillus) [µg/mL] | MCIC (Minimum Complete Inhibitory Concentration) (E. stewartii) [µg/mL] | MIC (Minimum Inhibitory Concentration) (E. stewartii) [µg/mL] | MCIC (Minimum Complete Inhibitory Concentration) (LBA 4404) [µg/mL] | MIC (Minimum Inhibitory Concentration) (LBA 4404) [µg/mL] | MCIC (Minimum Complete Inhibitory Concentration) (C. nebraskense) [µg/mL] | MIC (Minimum Inhibitory Concentration) (C. nebraskense) [µg/mL] |
| --- | --- | --- | --- | --- | --- | --- | --- | --- | --- | --- | --- | --- | --- | --- | --- | --- |
| KWCFRVCYRGICYRRCRGSTSGKWCFRVCYRGICYRRCR [derivative of the peptide tachyplesin] | > 64 | 32 | 64 | 16 | 32 | 12 | – | – | – | – | – | – | – | – | – | – |
| KWCFKVCYRGICYKKCK [derivative of the peptide tachyplesin] | 93 | 25 | 48 | 12 | 25 | 7.5 | > 100 | 3.13 | 100 | 6.25 | 25 | 3.13 | 12.5 | 3.13 | 25 | 3.13 |
